PubChem BioAssay AID493208 (National Center for Advancing Translational Sciences (NCATS), 2011)
Among all 44,000 compounds or so, about 340 (0.77%) were called active. Not shown: some 5% with an inconclusive outcome. Calls come from the whole dose curve; as a rule, active = well fitted inhibition curve with a large enough effect; inconclusive = small, poorly fitted or top-dose-only effect; inactive = flat fitted curve, though single readings scatter. This is one part of the list.

Assay: Acumen qHTS Assay for Inhibitors of the mTORC1 Signaling Pathway in MEF (Tsc2-/-, p53-/-) Cells: Sytravon;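 note: plate controls were DMSO for no effect and rapamycin for full effect; nearly all actives have a fitted effect of over 50% in size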
Conditions: phospho-rpS6 immunofluorescence/PI, 24 h; series mostly up to 38.3 µM; activity change, negative = inhibition: at the top concentration
Method in brief: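 Compounds act on Tsc2-/-, p53-/- fibroblasts carrying an empty vector for 24 h before fixation and dual staining for phospho-S6 and DNA (propidium iodide). Values are percentages of cells above a rapamycin-defined pS6/PI threshold.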

| Compound | activity change, negative = inhibition |
| --- | --- |
| Cc1cccc2c1-c1sc(C(=O)N3CCN(c4ccccc4)CC3)cc1CO2 | inactive: -7% |
| CCCCNS(=O)(=O)c1ccc2nc(-c3cccnc3)cc(C(=O)NCCCOC(C)C)c2c1 | inactive: -15.8% |
| Cc1ccc2nc(NCc3ccccc3)c3nnnn3c2c1 | inactive: 1.29% |
| CCOc1cccc(Nc2nn(-c3ccc(OC(F)(F)F)cc3)nc2C(C)=O)c1 | inactive: 3.06% |
| CCOC(=O)c1cnc2c(C)c(Cl)ccc2c1NCCc1ccc(OC)c(OC)c1 | inactive: 6.93% |
| COc1ccccc1CNC(=O)c1cccc(N2CCCS2(=O)=O)c1 | inactive: 2.83% |
| Cc1ccc(N(CC(=O)NCCc2ccccc2C)S(=O)(=O)N(C)C)cc1 | inactive: -23.7% |
| COc1ccccc1CNC(=O)Cn1c(=O)oc2cc(S(=O)(=O)N3CCCC3)ccc21 | inactive: 0.0229% |
| CCOC(=O)c1ccc(NC(=O)C2CC(=O)NC(=Nc3ccc(C)c(C)c3)S2)cc1 (stereo not drawn) | inactive: -23.5% |
| Cc1cccc(NC(=O)Nc2ccc(F)cc2)n1 | inactive: 1.96% |
| CCCCN(C)CCNC(=O)c1ccc(Cn2c(=O)[nH]c3cc(OC)c(OC)cc3c2=O)cc1 | inactive: 2.07% |
| COc1cc(-c2nc(S(=O)(=O)c3ccc(Br)cc3)c(N3CCOCC3)o2)cc(OC)c1OC | inactive: 0.61% |
| COc1ccc(Br)cc1C(=O)Nc1cccc2ccc(C)nc12 | inactive: 6.89% |
| CCc1nc2nc(C)cc(Nc3cc(Cl)ccc3C)n2n1 | inactive: 10.2% |
| CCc1ccc(CNC(=O)c2ccc3c(Cl)c4c(nc3c2)CCCC4)cc1 | inactive: -8.12% |
| CCOC(=O)c1cnn(-c2ccc(C(=O)Nc3ccc(OC(F)(F)F)cc3)cc2)c1N | inactive: 0.532% |
| Cc1cc(N2CCN(c3cccc(C)c3C)CC2)n2cnnc2n1 | inactive: -2.41% |
| CC(=O)Nc1ccc(NC(=O)C2CCCN(S(=O)(=O)c3ccc4c(c3)CCCC(=O)N4)C2)cc1 (stereo not drawn) | inactive: -2.16% |
| COc1ccc(Cl)cc1NC(=O)Cn1ncc2c3ccccc3n(C)c2c1=O | inactive: -1.64% |
| Cc1ccc2[nH]c3c(=O)n(CC(=O)NCc4ccco4)ncc3c2c1 | inactive: 2.41% |
| CCCN(Cc1cccs1)C(=O)Nc1cc(Cl)ccc1C | inactive: -0.576% |

| Compound | activity change, negative = inhibition |
| --- | --- |
| Cc1nn(CC(=O)NCc2ccc(F)cc2)c2ccccc12 | inactive: -7.96% |
| O=C(NCc1ccc(Cl)cc1)c1ccc2c(Cl)c3c(nc2c1)CCCC3 | inactive: -3.01% |
| Cc1ccc(OCCSc2nnc(-c3cccs3)o2)cc1Cl | inactive: 0.602% |
| Cc1ccc(C)c(N2CCN(C(=O)CCC(=O)Nc3ccc4nc(N5CCCCC5)cc(C)c4c3)CC2)c1 | inactive: 0% |
| CC(=O)Nc1ccc(NC(=O)C2CCN(c3c(NC(C)=O)c(C)nn3-c3ccccc3)CC2)cc1 | inactive: 0% |
| CCOC(=O)c1ccc2nc(C)cc(Nc3cccc(C(=O)O)c3)c2c1 | inactive: 6.97% |
| CCOC(=O)c1c(C)n(-c2ccccc2)c2ccc(OC(=O)c3ccccc3NC(=O)C(C)C)cc12 | inactive: 2.53% |
| CCOC(=O)c1cccc(NC(=O)CCCn2nc(C)c3c(C)n(-c4ccccc4)nc3c2=O)c1 | inactive: -3.84% |
| Cn1c(SCC(=O)Nc2ccccc2)nnc1-c1ccccc1 | inactive: -9.69% |
| COc1ccc(Cl)cc1-n1nnc(-c2nc(-c3ccccc3)no2)c1C | inactive: 4.77% |
| COc1ccc2c(c1)c(=O)c(C(=O)c1ccc(C)c(C)c1)cn2CC(=O)Nc1ccc2c(c1)OCCO2 | inactive: 1.08% |
| Cc1ccc(NC(=O)CCOc2ccccc2)cc1 | inactive: -5.14% |
| COC(=O)c1ccc(NC(=O)CCS(=O)(=O)c2ccc(Br)s2)cc1 | inactive: -18.6% |
| Cc1nc(N2CCCC2)ncc1C(=O)NCc1cccc(Cl)c1 | inactive: 2.12% |
| COc1ccccc1N1CCN(C(=O)Cn2c(=O)n3nc(-c4ccc(C)cc4)nc3c3ccccc32)CC1 | inactive: 3.72% |
| COc1ccc(NC(=O)c2cccc(N3CCCS3(=O)=O)c2)cc1OC | inactive: 4.11% |
| COC(=O)c1ccc(NC(=O)CC2C(=O)N(c3cccc(OC)c3)C(=O)N2Cc2ccco2)cc1 (stereo not drawn) | inactive: -10.8% |
| COc1ccc(C)cc1NC(=O)CN1c2ccccc2S(=O)(=O)c2ccccc21 | inactive: -6.47% |
| COc1ccc(C(=O)CSc2nc(C)cc(C)c2C(=O)Nc2ccccc2C)cc1 | inactive: -9.01% |
| Cc1nnc(N2C(=O)c3oc4ccccc4c(=O)c3C2c2ccc(C(C)(C)C)cc2)s1 (stereo not drawn) | inactive: 0.549% |
| CCc1ccc(NC(=O)CSc2nc3ccccc3nc2Cc2ccc(C)cc2)cc1 | inactive: -0.989% |

| Compound | activity change, negative = inhibition |
| --- | --- |
| COc1cccc(-c2nc(S(=O)(=O)c3ccccc3)c(N3CCCCC3)o2)c1 | inactive: -15.3% |
| COCCNC(=O)c1ccc2c(=O)n(CCc3ccccc3)c(SCC(=O)CC(=O)OC)nc2c1 | inactive: -0.0384% |
| COc1ccccc1CNC(=O)c1ccc(CS(=O)(=O)c2c(Cl)cccc2Cl)o1 | inactive: -0.504% |
| Cc1cccc(OCCSc2nc3ccccc3n2CC(=O)N2CCOCC2)c1 | inactive: -3.57% |
| CCc1ccc(CNC(=O)c2c3c(nc4ccccc24)C(=O)N(C2CCCCC2)C3)cc1 | inactive: -10.4% |
| CCOC(=O)c1ccc(N2C(=O)c3[nH]nc(-c4ccc(C)cc4)c3C2c2ccc(O)c(OCC)c2)cc1 (stereo not drawn) | inactive: 0.613% |
| CCCn1c(=O)c2sccc2n2c(CCCC(=O)N3CCN(c4ccccc4OC)CC3)nnc12 | inactive: -4.41% |
| CCOC(=O)c1c(C)[nH]c(C)c1S(=O)(=O)N(C)CC(=O)Nc1cc(Cl)ccc1C | inactive: 1.93% |
| COc1cc2c(=O)c(C(=O)c3ccc(C)c(C)c3)cn(Cc3ccccc3F)c2cc1OC | inactive: -17.4% |
| Cc1ccc2c(=O)cc(C(=O)Nc3sc4c(c3C(=O)NCc3ccco3)CCC4)oc2c1 | inactive: -0.536% |
| CC1=C(C(=O)OCc2ccc(C)cc2)C(c2ccccc2F)CC(=O)N1 (stereo not drawn) | inactive: -15.3% |
| COc1ccccc1NC(=O)CSc1nnc(-c2ccccc2C)o1 | inactive: -1.72% |
| O=C(NCc1ccccc1F)C1CCN(c2nnc(-n3cccc3)s2)CC1 | inactive: 1.19% |
| COc1cc(NC(=O)CCc2c(C)nn(-c3ccc(N4CCOCC4)nn3)c2C)cc(OC)c1OC | inactive: -7.72% |
| COc1ccc2c(c1)c(=O)c(C(=O)c1ccccc1)cn2CC(=O)Nc1ccc2c(c1)OCCO2 | inactive: -9.32% |
| CSc1ncc(Cl)c(C(=O)Nc2ccc(S(=O)(=O)N3CCC(C)CC3)cc2)n1 | inactive: -12.8% |
| COc1cccc(CNC(=O)C2CCN(c3nc4ccc(Cl)cc4[nH]3)CC2)c1 | inactive: 8.6% |
| CCCCc1cc(=O)oc2cc(C)c3c(C)coc3c12 | inactive: 0% |
| O=C(NCCn1cc(SCc2ccc(F)cc2)c2ccccc21)c1c(F)cccc1F | inactive: -10.4% |
| CCOC(=O)c1cccc(NC(=O)c2ccc3c(c2)nnn3C2CCCC2)c1 | inactive: -5.76% |
| Cc1ccc(Cn2c(C(=O)Nc3cccc(Cl)c3)cc3sccc32)cc1 | inactive: 0.705% |
